# Data as given in PubChem BioAssay AID463173 (ICCB-Longwood Screening Facility, Harvard Medical School, 2010).
# The campaign covered roughly 52,000 compounds. About 1,700 (3.3%) were called active. Rule as the data show it: active = survival mostly below about 52% (no sharp cut-off); inactive = mostly above about 56%. The list shows a part of the results.
# Test system: Wild type
# Experiment: S. aureus survival, RN4220 and DeltatarO strains – OD600, teichoic acid synthesis inhibitors, primary screen (AID 463173)
# Details: S. aureus RN4220 wild type/DeltatarO growth, OD600, 18 h, active compounds read low, screened at 18.75 µg/mL (by protocol)
row,SMILES,survival
1,CC(=O)Nc1cccc(NC(=O)CSc2cn(CC(=O)N3CCCCCC3)c3ccccc23)c1,inactive: 100%
2,O=C(c1cn(CCOc2ccc(Cl)cc2)c2ccccc12)C1CCCCC1,active: 9%
3,O=[N+]([O-])c1cc(-c2nc(-c3ccncc3)no2)ccc1NCc1ccccc1,inactive: 124%
4,COc1cn(CC(=O)Nc2cc(C)ccc2C)c(CN2CCCCC2)cc1=O,inactive: 138%
5,O=C(Nc1ccc2oc(-c3cccc(Cl)c3Cl)nc2c1)c1cccc(Br)c1,inactive: 99%
6,CCN(CC)S(=O)(=O)c1ccc(C(=O)NCCSc2c(-c3ccc(OC)cc3)[nH]c3ccccc23)cc1,inactive: 124%
7,COc1ccccc1NC(=O)C1=C(C)Nc2nc(SCc3ccccc3Cl)nn2C1c1ccncc1 (stereo not drawn),inactive: 79%
8,CC(=O)c1c(C)oc2ccc(N(C(=O)c3ccncc3)S(=O)(=O)c3ccc(C)cc3C)cc12,inactive: 107%
9,COc1ccc(-c2ccc(=O)n(CC(=O)NCCc3ccccc3)n2)cc1,inactive: 81%
10,CCCn1c2c(c(O)c(C(=O)Nc3ccccc3F)c1=O)CCCC2,inactive: 103%
11,CCOC(=O)C1(c2ccccc2)NC(c2ccc(O)c(OC)c2)C2C(=O)N(C)C(=O)C21 (stereo not drawn),inactive: 108%
12,CCOc1ccc(C(=O)c2cn(CC(=O)Nc3cc(OC)ccc3OC)c3cc(OC)c(OC)cc3c2=O)cc1,inactive: 68%
13,O=C(CN1C(=O)C2(SCC(=O)N2c2ccc(F)cc2)c2ccccc21)NCCc1ccccc1 (stereo not drawn),inactive: 94%
14,COc1ccc(NCc2nnc3n2CCCCC3)c(OC)c1,inactive: 73%
15,CC(C)(C)C/C(=N/O)c1ccccc1,inactive: 101%
16,CCc1ccc(OCCSc2nc(-c3cccc(C)c3)nc3cc(=O)[nH]n23)cc1,inactive: 59%
17,COc1ccc(NC(=O)CCSc2nc(-c3ccco3)cc(C(F)(F)F)n2)cc1OC,inactive: 67%
18,Cc1cc(C)cc(Nc2cc(C(=O)NCc3ccccc3)c3ccccc3n2)c1,inactive: 139%
19,Cc1cc(C)c(NC(=O)C(C)n2nnc3sc(-c4ccccc4)cc3c2=O)c(C)c1 (stereo not drawn),inactive: 113%
20,CCOC(=O)C1CCN(C(c2ccc(F)cc2)c2sc3nc(-c4ccco4)nn3c2O)CC1 (stereo not drawn),inactive: 65%

row,SMILES,survival
1,CCOc1cc(CNCCSc2nnnn2-c2ccccc2)ccc1OC,inactive: 93%
2,O=C(Nc1ccccc1C(F)(F)F)c1cc2ccccn2n1,inactive: 69%
3,Nc1c(C(=O)NCc2ccccc2)nnn1Cc1cccc(Br)c1,inactive: 76%
4,Cc1cccc(NC(=O)Cn2c(=O)n(CCC(=O)N3CCc4ccccc4C3)c(=O)c3ccccc32)c1,inactive: 93%
5,CCOC(=O)c1cccc(NC(=O)c2cc3cc4ccc(C)cc4nc3s2)c1,inactive: 80%
6,CSc1ccc(CCNC(=O)c2cc3c(-c4ccccc4F)nn(C)c3s2)cc1,inactive: 73%
7,Cc1cc(C)cc(Nc2nc3c(S(=O)(=O)c4cccc(Cl)c4)nnn3c3ccsc23)c1,inactive: 93%
8,O=C(N1CCCC1)N1c2ccccc2Sc2ccccc21,inactive: 109%
9,CCOC(=O)c1cc(-c2ccc(F)cc2)n(CCC(=O)NC2CCCCC2)c1C,inactive: 77%
10,CC(=O)Nc1ccc(C(=O)CSc2nnc3ccc4ccccc4n23)cc1,inactive: 86%
11,CCOc1ccc(NC(=O)NCCN2CCN(c3ccccc3F)CC2)cc1,inactive: 72%
12,O=S(=O)(NCc1ccc(Cl)cc1)c1ccc(N2CCCCS2(=O)=O)cc1,inactive: 132%
13,c1ccc2c(c1)nc(N1CCOCC1)c1ccccc12,inactive: 127%
14,COc1cccc(NC(=O)c2ccc(-c3nc(COc4ccc(C)cc4)c(C)o3)cc2)c1,inactive: 70%
15,Cc1cc(=O)n2nc(N3CCC(C(=O)Nc4ccc(Br)cc4F)CC3)sc2n1,inactive: 92%
16,Cc1ccc2c(c1)c1c(c(=O)n(-c3ccccc3C)c(=O)n1CC(=O)NCC1CCCO1)n2C (stereo not drawn),inactive: 66%
17,O=C(O)c1cccnc1N1CCOCC1,inactive: 111%
18,Cc1ccc(C)c(NC(=O)CCCN2C(=O)C(c3ccccc3)Oc3cccnc32)c1 (stereo not drawn),inactive: 89%
19,Cc1nc2nc[nH]n2c(=O)c1NC(=O)CC12CC3CC(CC(C3)C1)C2,inactive: 101%
20,COC(=O)CN(c1ccccc1)S(=O)(=O)c1ccc(OC)cc1,inactive: 102%

row,SMILES,survival
1,Nc1c(C(=O)Nc2ccc(Br)cc2)sc2nc(-c3ccncc3)ccc12,inactive: 103%
2,O=C(CNC(=O)c1ccc(Cl)cc1)OCc1cc(=O)n2nc(C3CCCCC3)sc2n1,inactive: 138%
3,COc1cc2c(=O)n(CCC(=O)NCC3CCCO3)c(=O)n(CC(=O)Nc3ccc(F)cc3)c2cc1OC (stereo not drawn),inactive: 129%
4,CCc1ccc(-n2c(CCC(=O)O)ccc2-c2ccc(F)cc2)cc1,inactive: 68%
5,COc1ccc(S(=O)(=O)N(CC(=O)Nc2cccnc2)c2ccc(C)cc2)cc1OC,inactive: 71%
6,CCN(CC)NC(=S)Nc1ccccc1,inactive: 101%
7,Cc1ccc(O)c(NC(=O)CCS(=O)(=O)c2nc(-c3ccc4c(c3)OCO4)cc(C(F)(F)F)n2)c1,inactive: 98%
8,CCOC(=O)CSc1nnc(CNc2ccc(C)cc2C)n1-c1ccccc1,inactive: 105%
9,CCc1ccc(CNC(=O)CCn2c(=O)c3cccn3c3ccc(F)cc32)cc1,inactive: 113%
10,COc1cccc(=O)c2c(C)oc(C)c12,inactive: 107%
11,Cc1ccc(-n2nnc(-c3nsc(NC(=O)c4ccc(C)c(C)c4)n3)c2C)cc1,inactive: 121%
12,CCn1c(CN2CCCCC2)nc2cc(NC(=O)c3ccc([N+](=O)[O-])cc3)ccc21,inactive: 81%
13,CCOc1ccccc1NC(=O)COc1ccc(S(=O)(=O)NC2CCCCC2)cc1,inactive: 75%
14,O=C(Nc1ccc(F)c(F)c1)C1CCCN1S(=O)(=O)c1cccc2nsnc12 (stereo not drawn),inactive: 77%
15,CCN(CC)c1ccc(/C=N/NC(=O)CC(C)C)cc1,inactive: 113%
16,N#Cc1ccccc1CNCc1cccs1,inactive: 113%
17,CCOc1ccccc1CNC(=O)c1cc(-c2ccc(C)c(C)c2)nc2ccccc12,inactive: 71%
18,COc1cccc(C=Nc2cnn(C)c2C(N)=O)c1O,inactive: 105%
